Hit rate of the full screen: of about 210,000 compounds, about 730 (0.35%) were called active. Inconclusive results, whose numbers are uncertain, are shown with a selection of clear calls. Calls follow the shape of the dose curve; as a rule, active = well fitted inhibition curve with a large enough effect; inconclusive = small, poorly fitted or top-dose-only effect; inactive = no such curve, though single readings can be large or run the other way. Potencies of inconclusive entries are doubtful fits and often do not repeat.
Assay: qHTS Assay for Identifying the Cell-Membrane Permeable IMPase Inhibitors: Potentiation with Lithium; also: nearly all actives have a fitted effect of over 50% in size;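 as to activity, negative = IMPase inhibition: plate controls were basal vehicle for no effect and high inhibitor control for full effect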
Conditions: CHO-M1 cells, IP1 TR-FRET (IP-One), carbachol + lithium; series mostly up to 59.4 µM; activity, negative = IMPase inhibition: at the top concentration
Summary of the method: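 Steps: plate 2000 CHO-M1 cells per well and culture 16–30 h; add compound and lithium; incubate 30 min, 37C; add d2-IP1 tracer and Eu cryptate anti-IP1 antibody in lysis buffer; read after 10 min at room temperature.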
Potency is read from the fitted curve at half-maximal effect.

| SMILES | activity, negative = IMPase inhibition | Potency |
| --- | --- | --- |
| CCN(CCCNC(=O)CN1C(=O)COc2ccccc21)c1ccccc1 | inactive: 18.4% [at 38.3 µM] |  |
| COC(=O)c1c(NC(=S)NN2CCOCC2)sc2c1CCCC2 | inactive: 7.78% |  |
| COC(=O)c1ccc(SCC(=O)NC2CCCCC2)c([N+](=O)[O-])c1 |  | active: 11.2 µM |
| N#CC1=C(Nc2ccccc2)SC=C(c2ccc(Br)cc2)N=C1N1CCOCC1 |  | inconclusive: 28.2 µM [inhibitor, single point] |
| COc1cccc(CCNC(=O)c2ccc(C#N)cc2)c1 | inactive: -2.72% |  |
| CN1CCN(C(=O)Cn2c(=O)oc3cc(S(=O)(=O)NCc4ccccc4)ccc32)CC1 |  | inconclusive: 17.8 µM [inhibitor, single point] |
| CC(=O)n1nc(-c2cccnc2)nc1N |  | inconclusive: 31.6 µM [inhibitor, partial curve] |
| COC(=O)c1ccc(NC(=O)c2cccc(OC)c2)cc1 | inactive: 20.3% [at 38.3 µM] |  |
| CC1Cc2ccccc2N1Cc1nc2cc(Cl)ccc2c(=O)[nH]1 (configuration not stated) | inactive: 23.1% [at 38.3 µM] |  |
| O=C(/C=C1\SC(=O)N(CC(=O)Nc2ccc(Cl)cc2)C1=O)Nc1ccc(F)cc1 | inactive: -9.46% |  |
| O=C(CC12CC3CC(CC(C3)C1)C2)Nc1ccccc1N1CCOCC1 |  | inconclusive: 3.16 µM [inhibitor, full curve] |
| S=C(c1ccc(Br)cc1)N1CCN(Cc2ccccc2)CC1 | inactive: 4.93% [at 38.3 µM] |  |
| Cn1ncc2c1ncn1nc(CCc3ccccc3)nc21 |  | inconclusive: 28.2 µM [inhibitor, single point] |
| O=C(O)c1ccccc1-c1ccc(/C=C/c2cc(C(F)(F)F)[nH]c(=O)n2)o1 |  | inconclusive: 5.01 µM [inhibitor, single point] |
| Fc1ccc(CNc2nc3ccccc3n3nnnc23)cc1 |  | inconclusive: 28.2 µM [inhibitor, single point] |
| O=c1cc(-c2ccc(O)cc2)oc2cc(O)cc(O)c12 |  | inactive |
| CC(C)(C)C(=O)OCC(=O)C1CCC2C3CCC4=CC(=O)CCC4(C)C3CCC12C (configuration not stated) | inactive: 8.02% |  |
| Fc1cccc2sc(Nc3nc4c(F)cccc4s3)nc12 |  | inconclusive: 11.2 µM [inhibitor, single point] |
| O=C(Nc1ccncc1)c1cc(-c2ccccn2)nc2ccc(Br)cc12 |  | active: 2.82 µM |
| C[C@]12CC[C@H]3c4ccc(O)cc4CC[C@@H]3[C@H]1C/C(=N/O)[C@H]2O | inactive: 5.78% |  |
| Cc1ccc(-n2nnnc2SCC(=O)Nc2ccccc2-c2ccccc2)cc1C | inactive: 14.3% |  |
| CN1C(=O)c2ccc(C(=O)NC3CCCCC3)cc2C1=O |  | inconclusive: 5.01 µM [inhibitor, single point] |
| COc1ccc(-c2ccc(SCC(=O)N3CCOCC3)nn2)cc1OC | inactive: 13.5% [at 38.3 µM] |  |
| COc1ccc(NC(=O)COc2ccc(/C=N/NC(=O)c3cccnc3)cc2OC)cc1 |  | inconclusive: 28.2 µM [inhibitor, single point] |
| CCOc1ccccc1NC(=O)Cn1nnc(C(=O)Nc2ccccc2Cl)c1N |  | inconclusive: 22.4 µM [inhibitor, single point] |
| Cn1c(SCC(=O)NCC2CCCO2)nnc1-c1c[nH]c2ccccc12 (configuration not stated) | inactive: 4.06% [at 38.3 µM] |  |

| SMILES | activity, negative = IMPase inhibition | Potency |
| --- | --- | --- |
| Cc1c(/C=N\NC(=O)c2ccc([N+](=O)[O-])cc2)cnn1C | inactive: -7.93% |  |
| COC(=O)CSc1nnc(-c2sc3ccccc3c2Cl)o1 |  | inconclusive: 31.6 µM [inhibitor, single point] |
| COc1ccc(C(=O)CSc2nc(N)nc(SC)c2C#N)cc1 |  | active: 6.31 µM |
| COc1ccc2nc(NC(=O)CSc3nc4cccnc4n3C)sc2c1 |  | inconclusive: 28.2 µM [inhibitor, single point] |
| COC(=O)c1sccc1NC(=O)c1c(-c2ccccc2)noc1C | inactive: 4.28% |  |
| CCOC(=O)CSc1nc2cc3c(cc2cc1C)OCO3 | inactive: 10.7% |  |
| Cc1cc(C)c2c3c(sc2n1)C1(CCSCC1)C(C#N)=C(N)O3 | inactive: 22.9% |  |
| COc1cc(C(=O)OCC(=O)NC(=O)c2cccn2C)ccc1OC(F)F |  | inconclusive: 2 µM [inhibitor, full curve, poor fit] |
| O=C(NC(=S)Nc1ccc2ncccc2c1)c1ccccc1 |  | inconclusive: 28.2 µM [inhibitor, single point] |
| Cc1cc(C)c(C#N)c(SCC(=O)NC(C)(C)C)n1 | inactive: 0.0193% [at 38.3 µM] |  |
| COc1cccc(-n2cc(C(=O)O)c3ccccc3c2=O)c1 |  | inconclusive: 10 µM [inhibitor, partial curve] |
| O=C(CCCCCn1c(=S)[nH]c2ccccc2c1=O)N1CCOCC1 |  | inconclusive: 20 µM [inhibitor, single point] |
| CN(C)c1ccc(C=C2C(=O)OC(C)(C(C)(C)C)OC2=O)cc1 (configuration not stated) |  | inconclusive: 25.1 µM [inhibitor, partial curve, poor fit] |
| COc1cc(OC)cc(-c2nnc(Nc3nc4c(F)cccc4s3)o2)c1 |  | inconclusive: 11.2 µM [inhibitor, single point] |
| COc1ccc(OC)c(S(=O)(=O)Nc2ccc(O)c3ccccc23)c1 | inactive: 35.6% |  |
| C=CCSc1nc(-c2ccc3c(c2)OCO3)cc(C(F)(F)F)c1C#N |  | inconclusive: 12.6 µM [inhibitor, single point] |
| CC(C)(C)c1cn(-c2ccc(Cl)cc2)c(=S)[nH]1 |  | inconclusive: 28.2 µM [inhibitor, single point] |
| Cc1onc(-c2ccccc2Cl)c1C(=O)Nc1cccc(-c2nc3ncccn3c2C)c1 |  | inconclusive: 11.2 µM [inhibitor, partial curve] |
| Cc1cc(C)c2c(CC(=O)Nc3nccs3)coc2c1 |  | inconclusive: 11.2 µM [inhibitor, single point] |
| COC(=O)C1(CCSC)NC(c2ccc(O)c(OC)c2)C2C(=O)N(c3ccc(C)cc3)C(=O)C21 (configuration not stated) | inactive: -6.4% |  |
| COc1cc2oc(=O)cc(-c3ccc(-c4ccc(C)cc4)cc3)c2c(OC)c1OC |  | inconclusive: 35.5 µM [inhibitor, single point] |
| CC1(C)CN(c2ccc(-c3ccnc4ncnn34)cc2)C1=O |  | inconclusive: 3.16 µM [inhibitor, partial curve] |
| COc1ccc(C2(C)NC(=O)N(Cc3cc(Cl)cc4c3OCOC4)C2=O)cc1OC (configuration not stated) | inactive: 5.49% [at 38.3 µM] |  |
| COc1cc(C2C(C#N)=C(N)N(c3sc4c(c3C#N)CCCC4)C3=C2C(=O)CC(C)(C)C3)cc(OC)c1OC (configuration not stated) | inactive: -13.1% [at 38.3 µM] |  |
| Cc1ccc(C(=O)CSc2nnc(-c3c[nH]c4ccccc34)o2)cc1 | inactive: 20.6% [at 38.3 µM] |  |
| CN(C)CCNC(=O)c1cc2cc(Br)ccc2oc1=O |  | inconclusive: 28.2 µM [inhibitor, single point] |

| SMILES | activity, negative = IMPase inhibition | Potency |
| --- | --- | --- |
| COC(=O)CSc1nc(C)cc(Oc2ccccc2)n1 |  | inconclusive: 11.2 µM [inhibitor, single point] |
| CNC(=O)c1sc(SC)cc1-c1ccc(Cl)cc1 |  | inconclusive: 12.6 µM [inhibitor, partial curve] |
| COC(=O)c1c(NC(NC(=O)C(C)(C)C)C(Cl)(Cl)Cl)sc2c1CCC2 (configuration not stated) |  | inconclusive: 5.01 µM [inhibitor, single point] |
| Cc1nn(-c2ccccc2)c(NC(=O)c2cccs2)c(-c2ccccc2)c1=O | inactive: -4.3% |  |
| CCOC(=O)c1[nH]nc2c1C(=O)N(Cc1ccccc1)C2=O | inactive: 6.02% [at 38.3 µM] |  |
| COC(=O)c1ncn(C2OC(COC(C)=O)C(OC(C)=O)C2OC(C)=O)n1 (configuration not stated) | inactive: -1.98% |  |
| Cc1ccc(C)c(C(=O)CSc2n[nH]c(C(C)C)n2)c1 | inactive: -4.81% [at 38.3 µM] |  |
| CCCc1nc(N)c(C#N)c(-c2ccco2)c1CC |  | inconclusive: 22.4 µM [inhibitor, single point] |
| COc1ccc(Cl)cc1NC(=O)c1cnc2sccn2c1=O |  | inconclusive: 28.2 µM [inhibitor, single point] |
| Cc1ccc(NC(=O)c2sc3nc4c(c(-c5ccco5)c3c2N)CCC4)cc1 |  | inconclusive: 10 µM [inhibitor, partial curve] |
| O=C(CSc1cnc2ccccc2n1)NC1CCCC1 |  | inconclusive: 10 µM [inhibitor, single point] |
| Cc1cccc(-n2ccnc2SCC(=O)Nc2ccc3c(c2)OCCO3)c1 |  | inconclusive: 10 µM [inhibitor, partial curve] |
| Nc1ccc(N2CCCCC2)c2nonc12 | inactive: 6.32% |  |
| CN(C)C(=O)CNC(=O)C1CCCCC1 | inactive: -15.9% [at 38.3 µM] |  |
| Cc1ccc(Oc2ccccc2/C=N/O)cc1 | inactive: 1.89% |  |
| CC1(C)N([O-])C2=C(c3ccccc3C2=O)[N+](=O)C1(C)C | inactive: 6.65% [at 38.3 µM] |  |
| CCC(C)(C)n1nnnc1C(c1cc2cc(C)ccc2[nH]c1=O)N1CCCc2ccccc21 (configuration not stated) | inactive: 31.5% [at 38.3 µM] |  |
| CC(=O)c1cc(-c2ccc(F)cc2)n(CCC(=O)NC(C)(C)C)c1C |  | inconclusive: 2.82 µM [inhibitor, full curve, poor fit] |
| COc1ccc(CNC(=O)[C@H](C)NC(=O)C2CCN(S(=O)(=O)c3ccc(C)cc3)CC2)cc1 | inactive: 13.1% [at 38.3 µM] |  |
| O=C(O)c1ccc(Cl)c2c1C1C=CCC1C(c1ccccn1)N2 (configuration not stated) |  | inconclusive: 7.94 µM [inhibitor, partial curve] |
| CC(C)c1c(O)cc(-c2ccncc2)n(-c2ccc(Cl)cc2)c1=O |  | inconclusive: 28.2 µM [inhibitor, single point] |
| CCc1ccc2nc(N3C(=O)C(O)=C(C(=O)c4ccco4)C3c3cccs3)sc2c1 (configuration not stated) | inactive: -29.3% |  |
| COCCCNC(=O)CSC1=Nc2ccccc2C2=NC(CC(=O)NCc3ccccc3)C(=O)N12 (configuration not stated) |  | inconclusive: 8.91 µM [inhibitor, single point] |
| CCOC(=O)c1nn(-c2ccc(OCC)cc2)c2nc(-c3cccc(OC)c3)c(C#N)c(=O)n12 |  | inconclusive: 22.4 µM [inhibitor, single point] |
| COc1ccccc1NC(=O)c1sc2ncn(Cc3ccc(C)cc3)c(=O)c2c1C |  | inconclusive: 28.2 µM [inhibitor, single point] |

Reference: PubChem BioAssay AID1457 (National Center for Advancing Translational Sciences (NCATS), 2008)
